# The campaign covered roughly 310,000 compounds. About 14,000 (4.5%) showed an effect of 50% or more. Effects have a minus sign here. The list shows a part of the results.
# Molecular target: human ether-à-go-go-related gene (hERG) potassium channel (human, UniProt Q12809)
# Experiment: primary screen, population patch clamp on CHO cells stably expressing hERG
# 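Also: peak tail current of the secondary pulse compared with the same well before compound.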
# Chain of human ether-à-go-go-related gene (hERG) potassium channel (Q12809 whole entry, looked up): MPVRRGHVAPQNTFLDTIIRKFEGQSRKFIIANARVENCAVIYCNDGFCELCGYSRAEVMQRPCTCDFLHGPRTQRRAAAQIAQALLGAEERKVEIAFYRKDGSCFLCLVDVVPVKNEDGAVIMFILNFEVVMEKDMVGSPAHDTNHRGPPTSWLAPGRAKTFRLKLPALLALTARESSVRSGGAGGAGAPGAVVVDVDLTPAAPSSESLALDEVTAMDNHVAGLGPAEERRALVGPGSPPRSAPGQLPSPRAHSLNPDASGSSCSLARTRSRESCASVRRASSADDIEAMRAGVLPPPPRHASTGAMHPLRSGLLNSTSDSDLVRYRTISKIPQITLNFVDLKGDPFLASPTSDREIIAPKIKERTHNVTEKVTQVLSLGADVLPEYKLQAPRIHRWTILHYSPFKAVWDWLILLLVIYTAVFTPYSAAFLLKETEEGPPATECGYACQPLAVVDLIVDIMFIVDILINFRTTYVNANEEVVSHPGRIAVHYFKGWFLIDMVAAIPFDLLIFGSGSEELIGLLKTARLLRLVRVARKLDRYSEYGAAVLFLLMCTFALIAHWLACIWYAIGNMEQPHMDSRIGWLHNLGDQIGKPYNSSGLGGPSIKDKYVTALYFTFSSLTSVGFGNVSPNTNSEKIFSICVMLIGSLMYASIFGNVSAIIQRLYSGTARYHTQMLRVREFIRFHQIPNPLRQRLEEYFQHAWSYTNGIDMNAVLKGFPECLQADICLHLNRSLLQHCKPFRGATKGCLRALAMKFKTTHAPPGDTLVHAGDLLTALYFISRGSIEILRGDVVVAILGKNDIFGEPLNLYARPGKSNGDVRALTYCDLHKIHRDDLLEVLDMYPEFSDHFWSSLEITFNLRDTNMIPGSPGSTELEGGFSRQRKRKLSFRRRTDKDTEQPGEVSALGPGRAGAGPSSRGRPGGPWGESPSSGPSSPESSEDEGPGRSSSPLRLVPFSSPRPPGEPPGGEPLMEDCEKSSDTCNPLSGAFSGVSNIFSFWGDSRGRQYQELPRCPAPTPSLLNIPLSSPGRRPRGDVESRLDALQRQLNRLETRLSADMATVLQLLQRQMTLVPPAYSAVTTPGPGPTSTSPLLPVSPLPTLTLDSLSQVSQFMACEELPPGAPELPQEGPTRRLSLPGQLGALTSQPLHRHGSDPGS
row,SMILES,"hERG current change (%, negative = inhibition) at 10uM"
1,FC(F)(F)c1cccc(-c2nc(COc3ccc(Cl)cc3Cl)no2)c1,15.2%
2,CCOC(=O)CNC(=O)CSc1nc2ncc(Br)cc2[nH]1,15.2%
3,CCOc1ccc(-n2nc3ccc(NC(=O)c4ccc5c(c4)OCCO5)cc3n2)cc1,2.62%
4,COc1ccc(C2C(C(=O)N3CCC(C)CC3)c3ccccc3C(=O)N2C)cc1 (centres unmarked),-2.03%
5,COc1ccc(CCC(=O)N2CCCC(Nc3ccccc3)C2)cc1OC (centres unmarked),-28.2%
6,Cc1cc(C)nc(NS(=O)(=O)c2ccc(NC(=O)c3ccc(S(=O)(=O)N4CC(C)OC(C)C4)cc3)cc2)n1 (centres unmarked),7.35%
7,CN1CCN(c2nc3c(c(=O)n(C)c(=O)n3C)n2Cc2ccccc2Cl)CC1,-6.5%
8,COc1ccc(Cl)cc1C(=O)OCC(=O)Nc1cccnc1Cl,15.8%
9,COc1cccc(-c2noc(Cn3nc(C)c([N+](=O)[O-])c3C)n2)c1,-6.89%
10,CCN(C(=O)c1cc2c(=O)[nH]c3ccc(C)cc3c2s1)c1ccc(F)cc1,1.36%
11,COc1ccc(-c2cc(C(=O)N(C)Cc3ccccc3)no2)cc1OC,-18.9%
12,C/C(=N\OC(=O)c1c(-c2ccccc2Cl)noc1C)c1ccncc1,-58.6%
13,O=c1[nH]n2c(=O)c3c([nH]c2c1N=Nc1cccc(C(F)(F)F)c1)CCCC3,0.417%
14,Cn1cccc1C(=O)Nc1nc(-c2ccccn2)cs1,-13.8%
15,C/C(=N/NC(=O)c1ccncc1)c1ccccc1,31.1%
16,CN(C)/C(Cn1cncn1)=C1/N=C(c2c(F)cccc2F)OC1=O,4.34%
17,O=C(Nc1ccc(-n2cccn2)cc1)C1CCN(Cc2ccsc2)CC1,-81.1%
18,CC(C)(C)c1ccccc1OCC(O)CN1CCN(c2ccccn2)CC1.Cl (centres unmarked),-48.8%
19,C/C(=N\NC(=O)COc1ccccc1[N+](=O)[O-])c1cccs1,10.3%
20,CCC(C)c1ccc(O)c(NC(=S)NC(=O)c2cccnc2)c1 (centres unmarked),49.6%
21,Cc1cccc(NS(=O)(=O)c2ccc(OCC(=O)N3CCCC3)cc2)c1,-19.1%
22,C[C@@H](C(=O)NCc1ccccn1)[C@@H]1C[C@@]1(C)[C@@H](NC(=O)OCc1ccccc1)c1ccccc1,-32.6%
23,Cc1cc(C)c2c(n1)nn1c(NCCOCCO)cc(C)nc21,-9.69%

row,SMILES,"hERG current change (%, negative = inhibition) at 10uM"
1,Cc1ccc(S(=O)(=O)C2(C(=O)Nc3ccc4c(c3)OCO4)CC2)cc1,-20.9%
2,Cn1nc(-c2ccccc2)c(C(=O)Nc2ccc(Cl)cc2)c1Cl,-12.7%
3,C=CCNC(=O)C1COc2ccccc2O1 (centres unmarked),-9.78%
4,O=C(c1ccc([N+](=O)[O-])cc1)c1cc2ccc(O)cc2oc1=O,6.81%
5,COc1ccc(CNC(=S)Nc2ccc3nc(N4CCOCC4)cc(C)c3c2)cc1,-24%
6,C=CCNc1nc2c(c(=O)n(C)c(=O)n2C)n1Cc1ccc(F)cc1,-11%
7,CCOc1ccc(S(=O)(=O)NCc2ccc(Cl)cc2)c2cccnc12,-24.9%
8,Cc1occc1-c1nc(-c2ccncc2)no1,-10.4%
9,O=C(CSc1nnnn1-c1ccc(Cl)cc1)Nc1cccnc1Cl,-19.2%
10,COc1cc2ncnc(NCCCN3CCOCC3)c2cc1OC,20.8%
11,C[NH+](C)CCOC(=O)C1(c2ccccc2)CCOCC1.[Cl-],14.1%
12,CC(NC(=O)OC1CCCCC1)N1C(=O)C2C3C=CC(C3)C2C1=O (centres unmarked),7.03%
13,COc1ccc(-c2ccc(CCC(=O)O)n2CC(=O)Nc2cccc(OC)c2)cc1,13.7%
14,N#Cc1c(N)c(C#N)c(-c2ccc(O)cc2)c2c1CCCC2,-3.3%
15,CSc1ncccc1C(=O)Nc1nc(C(C)(C)C)cs1,-23.5%
16,CCOC(=O)c1nn(-c2cccc(Cl)c2)c2nc(Nc3ccccc3)cc(=O)n12,9.17%
17,O=C(c1ccc2c(c1)ncn2-c1ccc(F)cc1F)N1CCC2(CC1)OCCO2,-6.35%
18,Cc1ccccc1N(CC(=O)N/N=C/c1ccccc1Cl)C(=O)c1ccccc1,7.46%
19,O=C(c1cccc(Oc2ccccc2)c1)N1CCOCC1,22.2%
20,Cc1ccc(-c2ccc(=O)n(CC(=O)N3CCN(c4cc(Cl)ccc4C)CC3)n2)cc1,-8.51%
21,COc1ccc(N(C)C(=O)C2CCN(S(=O)(=O)c3cccc4nonc34)CC2)cc1,5.87%
22,O=C(Nc1ccccc1N1CCCC1)c1ccco1,6.36%
23,O=C(CN1C(=O)CSC1=O)NC1CCCCC1,4.77%

row,SMILES,"hERG current change (%, negative = inhibition) at 10uM"
1,COc1cccc(/C=N/Nc2ccnc(=O)[nH]2)c1O,5.1%
2,CN(C(=O)Cn1nnc(-c2cccc(C(F)(F)F)c2)n1)C1CCCCC1,15.9%
3,COc1ccc(NC(=S)N(CCC(C)C)C2CCN(C(C)C)CC2)cc1,-39.2%
4,O=C(c1cccc2nc3ccccc3nc12)N1CCOCC1,5.67%
5,Cc1ccc(S(=O)(=O)N2C3C=CC(C3)C2C(=O)O)cc1 (centres unmarked),12%
6,COc1cccc(NC(=O)C2CCN(C(=O)NC3CCCCC3)CC2)c1,2.51%
7,COCCNC(=O)c1ccc(C(=O)NCCOC)s1,7.11%
8,C/C=C/C=[N+](\[O-])C(C)/C(=N/O)c1ccc(F)cc1 (centres unmarked),-22%
9,O=C(O)CSc1nnc(-c2ccc3c(c2)OCO3)o1,3.29%
10,O=C(Nc1nccs1)C1CC(=O)N(c2ccc(Cl)cc2)C1 (centres unmarked),-12.8%
11,COC(=O)c1ccccc1NC(=O)C1CCCN(S(=O)(=O)c2ccc(F)cc2)C1 (centres unmarked),-28.1%
12,CCC1Sc2ccc(S(=O)(=O)CCC(=O)NC3CCCCCC3)cc2NC1=O (centres unmarked),16.1%
13,CCCn1c(C(C)Nc2nc(-c3cccc(Br)c3)cs2)nc2ccccc21 (centres unmarked),-12.1%
14,CC(=O)CCc1ccc(OCCCCn2cncn2)cc1,-4.29%
15,COc1cccc(CC2(CO)CCCN(Cc3nc(-c4cccs4)oc3C)C2)c1 (centres unmarked),-64.5%
16,CSCCC(NC(=O)/C(=C/c1ccc(F)cc1)NC(C)=O)C(=O)O (centres unmarked),12.2%
17,CC(=O)Nc1ccc(C(=O)NC2CCSc3ccccc32)cc1 (centres unmarked),5.94%
18,CC1(C)CC(=O)c2cc(C(=O)Nn3cnnc3)c(=O)n(-c3ccccc3)c2C1,9.5%
19,Oc1ccccc1CNc1ccc2c(c1)OCCO2,8.27%
20,O=C(N/N=C/c1cn(-c2ccccc2)nc1-c1cccs1)c1ccc(Cl)cc1,14.5%
21,O=C(Nc1nc2ccccc2s1)C1=NN(c2ccccc2)C(=O)CC1,6.62%
22,C=CCn1c(SCc2cc(=O)n3ccsc3n2)nc2sc(C)c(C)c2c1=O,4.9%
23,CC(=O)c1cccc(N(CC(=O)O)S(C)(=O)=O)c1,5.02%

row,SMILES,"hERG current change (%, negative = inhibition) at 10uM"
1,Cc1cccc2cc(C#N)c(SCCN3CCCCC3)nc12.Cl,-35.3%
2,Cc1ccc(NC(=O)c2noc3c2CCCCC3)cc1,-7.14%
3,COC(=O)c1ccc(N(CC(=O)NC2CCCCC2)C(=O)CNC(=O)c2ccco2)cc1,4.85%
4,CC1CCC(NC(=O)CSc2ccc(S(=O)(=O)N(C)C)cn2)CC1 (centres unmarked),14.3%
5,CCCCOc1ccc(C(=O)NCC(=O)NCC(c2ccco2)N2CCCCC2)cc1 (centres unmarked),-21.4%
6,CC1CCc2c(nc3nc[nH]n3c2=O)C1 (centres unmarked),6.32%
7,Cc1ccc(NC(=O)CN(C)C(=O)Cc2ccccc2F)cc1,9.13%
8,COc1cc2c(cc1OC)CN(C(=O)/C=C/c1cccs1)CC2,-3.58%
9,Cc1ccc(/C(N)=N/OC(=O)COc2ccccc2Cl)cc1,5.39%
10,CN1CCN(c2ccccc2N)CC1,6.95%
11,CC(C)S(=O)(=O)c1cnc(-c2ccccn2)nc1N,2.73%
12,COC(=O)[C@@]12CCCCN1[C@H](c1ccc(-c3ccccc3)cc1)[C@@H]1C(=O)N(C)C(=O)[C@@H]12.O=C(O)C(F)(F)F,6%
13,CCCN(CCC)C(=O)c1ccc2c(c1)N(Cc1ccccc1)C(=O)CS2=O (centres unmarked),-9.19%
14,CC(=O)N(C(C)=O)c1nc(-c2ccccc2)cn1/N=C/c1cccc([N+](=O)[O-])c1,-2.52%
15,CS(=O)(=O)c1ccc(C(=O)Nc2ccc(S(=O)(=O)N3CCCCC3)cc2)cc1,-9.09%
16,O=C(CNC(=O)N1CC(=O)Nc2ccccc21)NCCc1c[nH]c2ccccc12,-7.16%
17,COc1ccc(-c2ccc(N(C)C)cc2)cc1[C@H]1[C@@H]2C=CCC[C@@]2(C)C(=O)N1Cc1ccccc1,11.1%
18,COC(=O)CNC(=O)C(C)NC(=O)OCc1ccccc1 (centres unmarked),9.59%
19,CC(=O)OCCCNc1cc(Sc2nc3ccccc3s2)c2nonc2c1[N+](=O)[O-],-3.06%
20,NC(=O)c1nsc(C(=O)N(Cc2ccc(F)cc2)C(C(=O)NCC2CCCO2)c2ccc(F)cc2)c1N (centres unmarked),-14.4%

# Source: publication PMC4336329 (PLoS ONE, 2015)
